Screen size: about 110,000 compounds; about 230 (0.21%) showed an effect of 50% or more. The list shows a part of the results.
biological target: DPAP1 (Plasmodium falciparum, UniProt Q8IIJ9); test: primary screen, percent inhibition; read by cleavage of a fluorogenic dipeptide substrate; higher = more effect of the substance; set-up: species or system P. falciparum D10 trophozoite lysates; single well
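Further: 30 min substrate incubation versus DMSO and 10 µM JCP410 controls.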

DPAP1, sequence (Q8IIJ9 whole entry, looked up): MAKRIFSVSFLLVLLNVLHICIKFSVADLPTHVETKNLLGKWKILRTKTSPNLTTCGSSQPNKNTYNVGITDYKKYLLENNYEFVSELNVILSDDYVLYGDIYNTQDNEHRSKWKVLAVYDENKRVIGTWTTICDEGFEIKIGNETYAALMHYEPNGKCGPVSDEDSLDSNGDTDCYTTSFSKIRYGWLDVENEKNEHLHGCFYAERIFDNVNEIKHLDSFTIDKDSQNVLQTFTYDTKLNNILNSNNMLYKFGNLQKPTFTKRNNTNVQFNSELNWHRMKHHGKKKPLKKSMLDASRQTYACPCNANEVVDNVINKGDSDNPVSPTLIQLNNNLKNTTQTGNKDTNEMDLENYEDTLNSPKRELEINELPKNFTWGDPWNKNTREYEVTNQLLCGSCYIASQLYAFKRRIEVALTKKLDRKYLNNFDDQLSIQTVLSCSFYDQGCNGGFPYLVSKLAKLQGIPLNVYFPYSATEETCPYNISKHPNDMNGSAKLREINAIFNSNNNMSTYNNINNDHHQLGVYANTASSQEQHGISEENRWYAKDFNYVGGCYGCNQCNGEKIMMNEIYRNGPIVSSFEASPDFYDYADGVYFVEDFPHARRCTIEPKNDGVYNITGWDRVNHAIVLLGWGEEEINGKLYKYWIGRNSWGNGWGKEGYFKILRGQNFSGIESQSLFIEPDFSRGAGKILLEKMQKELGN

SMILES | % Inhibition @ 10 uM [%]
Cc1nc2nc(O)cc(N)n2n1 | 2.31
OCC1CCCN(CCCc2ccccc2)C1 (stereo not drawn) | 5.03
COc1ccc(C2NCCC3(O)CCCCC23)c(C)c1C (stereo not drawn) | -1.85
CCCNCCOC(c1ccccc1)c1ccc(C)cc1 (stereo not drawn) | 0.343
COc1cc(C2c3c(oc4ccc(C)cc4c3=O)C(=O)N2c2nc(C)c(C)s2)ccc1O (stereo not drawn) | -1.33
CCOc1cc(C2C(C#N)=C(N)Oc3[nH]nc(-c4cc(C)sc4C)c32)cc(Br)c1O (stereo not drawn) | -0.99
COc1ccc2[nH]c3c(=O)n(Cc4ccc(C(=O)NCc5ccco5)cc4)c(=S)[nH]c3c2c1 | -5.76
O=C(O)CC1NCCNC1=O (stereo not drawn) | -1.33
Cn1cc(S(=O)(=O)N2CCCC2)cc1C(=O)NC1CCN(Cc2ccccc2)CC1 | -4.37
CCCC(=O)N1CCN(c2ccc(NC(=O)c3c(OC)cccc3OC)cc2Cl)CC1 | 0.245
COc1ccccc1CC(C)NCCN(C)C (stereo not drawn) | 0.217
CC(C)c1ccc(NC(=O)CN(Cc2ccccc2)S(C)(=O)=O)cc1 | -1.52
CS(=O)(=O)C1=NSC2=NC(=O)/C(=C\c3ccc(Sc4ccc(Cl)cc4)o3)C(=N)N21 | -1.58
CCSCCNC(=O)c1cncc(Br)c1 | 4.19
CC(C)Cc1ccc(C(=O)NCC2OCCc3ccccc32)cc1 (stereo not drawn) | 11.5
CC(C)C(=O)Nc1c(C(=O)c2ccc(Br)cc2)oc2ccccc12 | -2.91
O=C(NCCc1c[nH]c2ccccc12)c1csc2c1CCCCC2 | 0.277
Cc1ccc(S(=O)(=O)N2Cc3ccccc3CC2C(=O)NC(C)(C)C)cc1 (stereo not drawn) | 0.214
CO[C@H]1O[C@H](COC(c2ccccc2)(c2ccccc2)c2ccccc2)[C@@H](O)[C@H](O)[C@H]1O | 4.18
O=C(O)c1cc(-c2ccc(F)cc2)on1 | 0.596
Cc1ccc(-c2nnc(-c3ccccc3Cl)o2)s1 | -0.833
COc1ccc(Cl)cc1C(=O)Nc1nc2c(s1)Cc1c(Br)ccc(OC)c1-2 | 1.12
O=C(CCCn1c2ccccc2c2cnnc(O)c21)NCCCN1CCOCC1 | 4.55
COc1ccccc1NC(=O)c1ccc(Cn2cc(Cl)cn2)cc1 | -4.67
CCCc1ccc(OCc2nc(-c3nonc3N)no2)cc1 | 0.746
O=C1c2oc3ccccc3c(=O)c2C(c2ccc(F)cc2)N1Cc1ccc2c(c1)OCO2 (stereo not drawn) | -1.33

SMILES | % Inhibition @ 10 uM [%]
Cc1cc(C)n(CC(=O)O)n1 | -2.96
Cc1ccc2c(Cl)c(C(=O)Nc3ccccc3C(N)=O)sc2c1 | -2.54
CN1CCCN(Cc2cccc3ccccc23)CC1 | -1.92
COc1cccc2c1Oc1nc(-c3ccccn3)nc(O)c1C2 | 3.92
O=C(Nc1cc([N+](=O)[O-])ccc1O)c1ccc(Br)cc1 | -1.86
CCOC(=O)c1cc(C)[nH]c1C | 4.42
CC1=C(C(=O)Nc2ccc(F)cc2F)C(c2ccc3c(c2)OCO3)C2=C(O)CCCC2=N1 (stereo not drawn) | 0.121
Cc1ccc(S(=O)(=O)N2CCCC(C(=O)NC(c3ccccc3)c3ccccc3)C2)cc1 (stereo not drawn) | -1.07
COc1cc(C2c3c(-c4ccccc4O)n[nH]c3C(=O)N2CCCO)ccc1OCC(C)C (stereo not drawn) | -1.35
O=C(O)Cc1ccc(CCc2ccccc2)s1 | -0.0369
Cn1nccc1C(=O)Nc1ccn(Cc2ccccc2F)n1 | 0.709
Cn1cc(S(=O)(=O)N2CCCC2)cc1C(=O)N1CCC(Cc2ccccc2)CC1 | -8.34
COc1ccc(OC)c(NC(=O)C2CCCC2)c1 | 0.231
Cc1ccc(C2CC(C(F)(F)F)n3nc(C(=O)NCC4CCCO4)cc3N2)cc1 (stereo not drawn) | 18.5
CCCC(NS(=O)(=O)c1cc(-c2cc(C)no2)ccc1C)c1cccs1 (stereo not drawn) | -1.92
CCC(Sc1nnnn1-c1ccccc1)C(=O)Nc1sc2c(c1C#N)CCCC2 (stereo not drawn) | 3.47
CCc1nn(CC(=O)NCCCN2CCN(Cc3ccccc3)CC2)c(=O)c2cc3occc3n12 | 4.55
Cc1cccc(C)c1NC(=O)CN1C(=O)S/C(=C/c2cc(C)n(-c3cccnc3)c2C)C1=O | 2.98
CCC(=O)c1c(N2CCOCC2)nc(C)c2c1CCCC2 | -1.84
O=C(/C=C(/Nc1ccccn1)C(=O)c1ccccc1)c1ccccc1 | -0.99
COc1ccc(/C=C(/NC(=O)c2ccccc2)C(=O)N2CC3(C)CC2CC(C)(C)C3)cc1 (stereo not drawn) | 2.38
Cn1cc(NC(=O)N2CCCCCC2)c2ccccc2c1=O | 0.745
Nc1ccc2c(c1)C(=O)N(CCCCCC(=O)O)C2 | -4.12
CCOC(=O)C(C#N)=C1CCCCCC1 | -4.06
CC12CCC(O)CC1=CCC1C2CCC2(C)C(O)/C(=C/c3ccc(OC(F)F)cc3)CC12 (stereo not drawn) | 10.9
CCC(=O)Nc1c(C)n(C)n(-c2ccccc2)c1=O | 3.15

SMILES | % Inhibition @ 10 uM [%]
NC(=O)CN(c1ccccc1)C1SC(=O)N(Cc2cccc(C(=O)O)c2)C1=O (stereo not drawn) | -2.8
c1ccc(OCCCCN2CCCCC2)cc1 | 5.29
CC(C)C[C@H](NC(=O)N1CCN(C(c2ccc(F)cc2)c2ccc(F)cc2)CC1)C(=O)NCC#N | -0.406
CCCC(C(=O)O)N1C(=O)C2C3C=CC(C3)C2C1=O (stereo not drawn) | -0.759
CN(C)CCN(Cc1ccccc1)Cc1cccc(F)c1 | -1.81
OC(c1cccc(OCc2ccccc2)c1)c1cccs1 (stereo not drawn) | 1.62
CCCCn1c(SCC(=O)Nc2nccs2)nc2ccsc2c1=O | 0.0592
COc1ccc(OC)c(/C=C2\C(=O)/C(=C/c3cc(OC)ccc3OC)C3CCC2N3C)c1 | 6.89
Cc1nc(-c2ccc(Cl)cc2Cl)nc(C)c1C#N | 20.8
COC(=O)c1oc2c(c1C)-c1nc3ccccc3nc1C(C)(C)C2 | 2.31
CCOC(=O)C1=C(CN2CCN(C(=O)OCC)CC2)NC(=O)NC1c1cccc(OC)c1OC (stereo not drawn) | 2.12
COc1ccc(C)cc1NC(=O)c1ccc(C)o1 | 3.53
CCOc1ccc(C)cc1S(=O)(=O)n1cnc2cc(C)c(C)cc21 | -4.78
O=C(CSc1nc[nH]n1)N1CCN(c2nnc(-c3ccccc3)c3ccccc23)CC1 | -2.75
O=C(NCC1CCCO1)c1nn2c(c1Br)NC(c1cccs1)CC2C(F)(F)F (stereo not drawn) | -0.142
Clc1ccc(N2CC=CCC2)nn1 | 1.12
O=C(NCc1ccc2c(c1)OCO2)C1CCN(S(=O)(=O)c2cccc3nonc23)CC1 | -2.56
CCC1CCCCN1CCCNC(=O)c1cc2ccc3cccnc3c2[nH]1 (stereo not drawn) | 2.44
CC[C@H](NC(=O)[C@@H](O)CS(=O)(=O)Cc1ccccc1)C(=O)c1nc2ccccc2s1 | -0.214
O=C(Cc1ccccc1)NCc1ccc(-n2cccc2)cc1 | 1.32
CCn1ncc(/C=C2/CC3C4CC=C5CC(O)CCC5(C)C4CCC3(C)C2=O)c1C (stereo not drawn) | 0.64
COc1cc(CNC(=O)C2CCN(c3cnccn3)CC2)cc(OC)c1OC | 0.758
O=C(c1cccs1)N1CCc2ccccc2C1 | -4.4
O=C(CN1C(=O)S/C(=C\c2ccc(Cl)cc2)C1=O)Nc1ccc(C(=O)O)cc1 | -3
O=C(Nc1cccc2c1C(=O)c1ccccc1C2=O)c1cccs1 | 1.43
COc1ccccc1C(=O)Nc1cccc(C)c1C | -1.48

SMILES | % Inhibition @ 10 uM [%]
Nc1ncc(Br)nc1N | 0.66
Cc1ccc(-n2c(SCC(=O)c3ccccc3)nc3nncc-3c2O)cc1C | -6.91
COc1ccc(CC(=O)NCc2ccc3c(c2)OCO3)cc1 | -1.52
O=C1N/C(=C/c2cc(Br)ccc2O)C(=O)N1Cc1ccccc1F | -3.29
Cc1cc(C)cc(OCCCc2c(C)n[nH]c2C)c1 | -4.95
Cc1ccc(S(=O)(=O)NC(C(=O)O)C23CC4CC(CC(C4)C2)C3)cc1 (stereo not drawn) | 4.15
CCOc1ccc2sc(/C=N/Cc3cccs3)c(O)c2c1 | -3.16
O=C(O)c1cccc(COc2cccc(Br)c2)c1 | 3.53
COc1cc2c(cc1OC)C(c1cccs1)CC(=O)N2 (stereo not drawn) | 5.39
O=C(CCC(=O)N1Cc2ccccc2Oc2ncccc21)NCCC1=CCCCC1 | 0.451
COc1ccc(C(=O)ON=C2C(C)=CC(=O)C=C2C)cc1 | 4.95
O=C(CN1C(=O)CSc2ncccc21)NCCCN1CCOCC1 | 1.03
OCCN(Cc1ccccc1)Cc1cccc(F)c1 | 1.08
COc1ccc2c(Sc3ccc(Cl)cc3)c(C(=O)NCCCN3CCCC3=O)[nH]c2c1 | -1.17
Cc1cc(C)c(S(=O)(=O)NCc2ccc(C(=O)NCCc3ccccc3)cc2)c(C)c1 | -3.35
CC1=C(C(=O)Nc2cccnc2)C(c2cccs2)n2nc(-c3ccccc3Cl)nc2N1 (stereo not drawn) | -3.67
CCOc1cc(C)c(Cl)cc1S(=O)(=O)NCc1cccnc1 | -5.21
O=C(NC1CCCc2ccccc21)c1ccc(CS(=O)c2ccc(Cl)cc2)o1 (stereo not drawn) | 4.79
CCCN(Cc1cc([N+](=O)[O-])ccc1O)CC1CC1 | 0.00588
CC(=O)c1ccc(NC(=O)c2ccc(Oc3ccccc3)cc2)cc1 | -0.318
Cc1cc(C)nc(NC2=NCC(=O)N2c2ccccc2Br)n1 | -2.32
COc1ccc(OC)c(C2CC(=O)N3C(=C2C#N)SCC3(O)c2ccc(F)cc2)c1 (stereo not drawn) | 3.24
COc1ccc(CN(C(=O)c2cccs2)c2ccccc2C(=O)O)cc1 | 3.9
O=C(CCCC(=O)Nc1ccc2ccccc2c1)Nc1ccc2ccccc2c1 | -3.48
